Results from the supplement of paper PMC3334620.
Whole data set: some 33,000 sequences, median “E-score (-0.5 to 0.5)” near -0.013, cut for the highest 2% near 0.3. The list shows a part of the results.

Target: T1, Msn1 (UniProt P22148)
T1 sequence: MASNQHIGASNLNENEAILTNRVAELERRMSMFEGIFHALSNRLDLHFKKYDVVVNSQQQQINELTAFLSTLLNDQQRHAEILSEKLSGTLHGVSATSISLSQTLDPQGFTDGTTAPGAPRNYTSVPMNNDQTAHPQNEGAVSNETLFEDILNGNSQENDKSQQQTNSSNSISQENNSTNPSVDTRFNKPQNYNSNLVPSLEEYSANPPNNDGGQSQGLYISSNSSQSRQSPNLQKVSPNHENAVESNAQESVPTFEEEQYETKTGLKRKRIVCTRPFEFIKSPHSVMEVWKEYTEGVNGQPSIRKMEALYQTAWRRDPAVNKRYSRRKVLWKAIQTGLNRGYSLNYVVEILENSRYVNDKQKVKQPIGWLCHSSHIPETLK
Test: PBM E-score (8-mer binding enrichment) (E-score (-0.5 to 0.5)); higher = stronger / more preferred TF binding; most listed sequences are background and not binding sites
Conditions: protein concentration: 200 nM; construct: GST-full length
Procedure, shortened: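 The E-score, a modified Wilcoxon-Mann-Whitney statistic, was computed by the Universal PBM Analysis Suite for every ungapped eight-base word pooled with its reverse complement. Scans behind it were normalised with masliner after bound GST-tagged yeast transcription factors were detected with fluorescent anti-GST. The proteins, at about 100-200 nM, had been applied to universal all-10-mer Agilent arrays made double-stranded by primer extension.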

Sequence	PBM E-score
ACATCGAA	0.186
AGGACCAA	0.0094
CCACCTAC	-0.0906
CATAAAAG	0.0593
AACTCCAA	0.095
CAACAAGA	0.0127
GAGTTCCA	-0.0703
AGCGTGCC	-0.224
CTCAGTAC	0.121
ACTGGCTA	-0.128
CGTTTCTC	-0.159
CGCCCCAA	0.0901
GCTGTCCC	-0.0712
AATCCATC	-0.105
CTGTAGCA	-0.156
GCTTAGAA	-0.0192
GGTAGGGA	-0.129
AAGGCCGG	0.0674
TCGTTACA	-0.055
ATCTTAAT	0.0934
CTGGTTAC	-0.0717
GGCTCGGA	-0.00346
CAAGCGAA	0.0496
ATTTGGGG	-0.0451
TCGGCCCA	0.0853

Sequence	PBM E-score
CAAAGTTA	0.162
CCTTAGTC	-0.0799
AGCAACTA	0.118
GAGGCGAC	-0.115
GCTTCTAA	-0.151
CGCAACAA	0.069
CCCTTAAA	-0.0133
CCCATATC	-0.0275
ATTTCCAG	0.0655
GCGCCTCA	-0.0816
CGAACGCA	0.221
AACCGGCA	-0.0265
CCATGCAG	-0.187
ATCGCGGC	0.195
CACTCAAG	-0.265
ACATTTCT	0.204
AGGGCAAC	-0.00454
AAAACAAC	0.00138
ATTGCTTC	0.0557
AAAATAAG	0.167
CCTCCATC	-0.375
CAGGTTGA	-0.169
CACATAGG	-0.11
ACCAACTA	0.0419
TCCGGAGA	0.0632

Sequence	PBM E-score
CATCATCG	-0.0227
CCACCTAG	-0.169
AAGACCGC	-0.0468
ATTTACGA	0.128
GAGTGATC	-0.0219
ATCTGACC	0.106
GCTGGGCA	-0.119
TAGGCAGA	0.128
AGCGTGAA	-0.135
AGGTCCTC	-0.119
CGCTGTAC	0.0558
CGCCGTCA	-0.114
TCCGCTAA	-0.0914
ACCCTTCT	-0.157
ACATGGGC	0.154
GAGCGCGA	0.156
CACGGAAG	-0.0308
AACGTAGC	0.0549
ATGACTTA	0.194
GCTGCTCC	-0.218
CTGTAGAC	0.0314
CGCGCGCG	-0.00147
ATACTCGA	-0.012
CTGGATTA	0.0423
TCGCTGCA	-0.0828

Sequence	PBM E-score
TTACACAA	0.208
AAGCATCA	-0.146
ACCACTTC	-0.191
AACGCAAT	0.00875
ATAGTACA	0.219
CGGTGTAG	-0.0126
ACTTGCGC	0.0802
CCATTCTC	-0.018
AGCTGCGC	-0.106
AGGGAAGG	-0.354
TAAATCTA	0.0426
GCTCCCGA	-0.179
CGAGGTCA	-0.00251
CAAAATCA	0.23
TCTCAAGA	0.102
AAGAGTAC	0.038
CCGCGCCC	-0.268
AATAGAGC	0.0385
GGCCCGGA	-0.137
GTCTTGGA	0.0469
CGTATGGC	0.0738
CCCGTTAG	-0.265
AGGCCGGC	0.066
ATATGAAT	0.187
ACCCCAGC	-0.154

Sequence	PBM E-score
ATTACGAA	0.103
CCCGACAG	0.052
ACGCAAAC	-0.0978
TATTTTAA	0.17
CCCATCAG	-0.317
CGGCATAG	-0.0356
CCCAGCCA	-0.156
ATGTCTAG	0.373
CCTCGGTA	-0.0171
ATACGTGA	0.049
CGCGTTAG	-0.0976
ACCTATGC	-0.0639
ACGTCTTC	-0.00769
ATGAACTA	-0.0141
GATGGTGC	-0.309
AGGTGCTA	0.0106
AACTTTCA	0.0329
GCTCTCCA	-0.233
CTGACCGA	0.00348
AAAGAACC	0.126
AAAGGCCT	-0.122
GCAGCGTA	-0.126
CTTTTTGC	0.0698
AGATGTAG	-0.094
TACTGATA	0.148

Sequence	PBM E-score
AGTCACAC	-0.079
GCGCGTAA	0.0712
ATTTAGAC	0.151
CTAGTTCA	-0.0518
AGGGATAG	-0.2
AGATCGGC	-0.154
CAAGCTGG	-0.248
TCATTCGA	0.0861
TAGATAGA	0.124
AAACCGGG	-0.0257
CCAACGCC	-0.0515
ATTGCAAC	0.0266
CTGGAAGA	-0.0581
ATTTTTCC	0.21
AACTGCGA	0.0208
AACCCCAG	-0.172
AACCCCCG	-0.354
GCTGCTGA	-0.0498
AGGTGCGA	-0.112
AGAAAGAA	-0.0629
ATGCCTAA	-0.0976
CGCTGGAG	-0.239
CACGAACG	-0.00401
CTAACGTC	0.041
GAGTGACA	0.221

Sequence	PBM E-score
GAGGACTA	0.0516
ACCGCCTG	-0.279
ATCTACCA	0.023
GATGGTGA	-0.169
CCCACCAC	-0.22
GACTGCGA	-0.142
AACCTCCA	-0.27
GCGGGAAC	-0.169
AATAAGCA	0.0436
GAACGAGC	0.145
AGGGTCGC	-0.229
CCGGGCTC	-0.119
ACGCCAAG	-0.249
AGGACACG	0.467
AATTATCA	0.102
AGTCTTGA	0.127
AACTGGAC	0.128
ACTGGGGA	-0.247
ATACGCAA	-0.0647
CGATTCAC	-0.141
AAGAAGCG	-0.0636
TACCTACA	-0.026
AACTTTCC	-0.116
ACCCGAGT	-0.198
ATAAGAAA	0.0285

Sequence	PBM E-score
ACTAACCG	-0.0257
TAGTCGGA	0.104
ATCGTAGA	-0.0369
TTATCGAA	0.091
CTAACTCC	-0.274
CTTACGTA	0.0775
AACGAAAA	0.207
AACGAGAA	0.115
CTATAGAA	-0.0562
GATGATCC	-0.0558
AGGTGGTG	0.00496
CTAACCGC	-0.139
CCGGAGAG	-0.033
ATGCTTTC	0.0201
ACGGACCG	-0.0826
GAACTTGA	0.133
AAAAGAAG	0.122
GGTATTTA	0.0759
GTTGTCGA	0.00891
GATGCACA	-0.19
ATTTCCCC	-0.0769
AGCACATA	-0.0583
ATGATGTA	0.173
ACTCGGGC	0.0184
ATTACCGG	-0.0349

Sequence	PBM E-score
CATCCTGG	0.0159
TCTAGTAA	0.0589
ATGGATGG	-0.172
CGGCTCGA	0.0667
AGTTTCGA	-0.118
CCATTGGC	-0.0912
ATTAGCAG	-0.19
ATTACTAC	-0.0376
TCGCGCCA	-0.0985
TCATTAGA	0.0367
AGACCTGG	-0.108
ACAGCCGT	0.0116
CGTAGGAA	-0.153
AAGTTATA	0.175
ACCGAACC	-0.198
ATGCTAGA	0.0751
GGCGTATA	-0.126
ACAAAGCG	0.125
GATTAACA	0.201
ACGGAGAC	0.164
GCTAGCGA	-0.046
AGCAGGCA	-0.302
TACCACAA	0.19
TCCTAACA	0.254
AGTCGATC	-0.11

Sequence	PBM E-score
AAAACACC	0.0787
CTTCAGCC	-0.206
ACGTAGCG	-0.138
ACGACAAA	0.435
AAGAGTCT	-0.0597
CAAGGTCG	-0.221
CACTGAAG	-0.0489
CGGGCCTC	-0.114
CGAGTTAA	0.0871
AATTGGTA	0.0485
GCTGTCTA	-0.14
CGATTCAG	-0.00412
CCATTAGC	-0.122
TCCCGACA	0.255
AAAGAATA	0.199
GTCCTCTA	-0.00417
AGACTTCA	0.00292
AATAAGAA	0.262
CAACGGAC	0.121
ATGGGCCC	-0.307
CTTCGTGC	-0.0725
AGGGCGTC	-0.259
CTCCCCTA	-0.263
ATTTTACA	0.0389
CGCTTGCA	-0.183

Sequence	PBM E-score
CGCCGCAG	-0.323
ACGCCAGC	-0.195
TAGCCTCA	-0.0568
GGCGACTA	-0.117
CTCAATCC	0.055
GCATGCAC	-0.107
CCGAATCA	-0.0491
GCCATTAA	0.116
ACAGTCCC	-0.108
TAGGGGAA	-0.198
AGAAGGAT	-0.336
CCTTGAAG	-0.146
ACCCCATA	-0.0715
GACTCCCA	-0.145
GCGTTATA	-0.053
GACACGAA	0.204
GGGTCGTA	-0.204
CATGGGTC	-0.128
AGCTCTAG	-0.0245
GAATCAAC	0.0586
TACGTGCA	-0.17
CACATCAA	-0.00024
ATCCCCCC	-0.456
CGTATATC	-0.154
ACCGCAAC	0.0188

Sequence	PBM E-score
CGTGCCTA	-0.195
CTCAGGCC	-0.235
CTTTTCCA	-0.215
ACTCCGCT	-0.208
AGTACTCG	0.107
CGCCAGGC	-0.174
AGGTTAGA	-0.0736
AGTTCACA	-0.0407
TCAATCAA	0.0177
ATGGAGTG	-0.193
ACTATCAT	0.0702
AAGTGAAG	-0.134
AAACGGCT	-0.197
AGTAACAA	0.0634
CGCCTACA	0.0079
CGCCTAGC	-0.241
GCACGCAA	-0.195
GGAATATA	0.206
CTACAGAG	-0.0572
ATGGTGGC	-0.276
GAGTCATA	0.0749
ATATTTAC	0.16
GGAACGGA	-0.00048
AAAAGTGA	0.0095
CCGAGCTA	-0.0148

Sequence	PBM E-score
CACGAGGA	0.078
CATGCAAG	-0.182
TATGTAGA	0.0206
AGATGAGC	-0.0343
ATCCTGTA	0.184
AGCAAATG	0.0209
TAGAGACA	0.377
GGCATTAC	0.0489
GAGATCTC	0.0688
CAATCGGG	0.0731
CTGCGTCC	-0.0512
GGCTTTAA	-0.102
ATCGTGAG	-0.19
CGCGTCAA	0.0339
AGCCAAAC	-0.0538
CGAATCTC	0.025
ATACTAAA	0.164
CCGCTGCC	-0.125
CAAATACC	0.154
ACGACGCC	-0.176
ATGCGAGA	0.0519
CATCAAAG	-0.0249
ACTACGTG	-0.236
AAACCTTA	0.0206
AAACTATA	0.0437

Sequence	PBM E-score
CAGTCCGC	-0.118
CACCGTGG	-0.177
GGCTGCGA	-0.0567
AGCTAAAG	0.0177
ACTGGGAT	-0.0208
CGGCAGGC	-0.107
AGGCAAGG	-0.205
ACATATAC	0.268
ATGGACGG	0.051
CGTAATTA	0.105
CGTACGAC	0.0832
CAGATCAC	0.0686
GGAGTCGA	-0.137
CGATGGAG	-0.0659
GTGATTCA	0.0352
CGGCGGGC	-0.109
GGTAGTTA	-0.213
ACGCTGGG	-0.406
AATGTCCG	0.481
